Test results taken from the supplement of paper PMC8728848.
The other results are listed elsewhere or left out.

Experiments:
Test in all cases: glycan array binding signal (z-score within array); higher = stronger binding
Conditions in all cases: glycan notation: IUPAC condensed, linker removed
[1] = biological target: Gal(b1-3)GlcNAc(b1-6)[Gal(b1-3)]GalNAc
In short: (§1)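 The Consortium for Functional Glycomics database supplied 3228 glycan arrays, of which those lacking an available protein sequence were dropped. The binding signal, a within-array Z-score, was averaged across arrays of the same protein sequence and across linkers. Negative scores can be read as non-binding.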

Gal(b1-3)GlcNAc6S = biological target: Gal(b1-3)GlcNAc6S
In short: as §1

[2] = biological target: Gal(b1-3)[Fuc(a1-4)]GlcNAc
In short: as §1

[3] = biological target: Gal(b1-3)[Fuc(a1-4)]GlcNAc(b1-2)Man
In short: as §1

[4] = biological target: Gal(b1-3)[Fuc(a1-4)]GlcNAc(b1-2)Man(a1-3)[Gal(b1-3)[Fuc(a1-4)]GlcNAc(b1-2)Man(a1-6)]Man(b1-4)GlcNAc(b1-4)[Fuc(a1-6)]GlcNAc
In short: as §1

[5] = biological target: Gal(b1-3)[Fuc(a1-4)]GlcNAc(b1-3)Gal(b1-3)[Fuc(a1-4)]GlcNAc
In short: as §1

[6] = biological target: Gal(b1-3)[Fuc(a1-4)]GlcNAc(b1-3)Gal(b1-4)[Fuc(a1-3)]GlcNAc
In short: as §1

[7] = biological target: Gal(b1-3)[Fuc(a1-4)]GlcNAc(b1-6)GalNAc
In short: as §1

[8] = biological target: Gal(b1-3)[GlcNAc(b1-6)]GalNAc
In short: as §1

[9] = biological target: Gal(b1-3)[Neu5Ac(a2-6)]GalNAc
In short: as §1

[10] = biological target: Gal(b1-3)[Neu5Ac(a2-6)]GlcNAc(b1-4)Gal(b1-4)Glc
In short: as §1

[11] = biological target: Gal(b1-3)[Neu5Ac(b2-6)]GalNAc
In short: as §1

Gal(b1-4)Gal = biological target: Gal(b1-4)Gal
In short: as §1

[12] = biological target: Gal(b1-4)GalNAc(a1-3)[Fuc(a1-2)]Gal(b1-4)GlcNAc
In short: as §1

[13] = biological target: Gal(b1-4)GalNAc(b1-3)[Fuc(a1-2)]Gal(b1-4)GlcNAc
In short: as §1

Gal(b1-4)Glc = biological target: Gal(b1-4)Glc
In short: as §1

Gal(b1-4)Glc6S = biological target: Gal(b1-4)Glc6S
In short: as §1

Gal(b1-4)GlcNAc = biological target: Gal(b1-4)GlcNAc
In short: as §1

[14] = biological target: Gal(b1-4)GlcNAc(a1-6)Gal(b1-4)GlcNAc
In short: as §1

Gal(b1-4)GlcNAc(b1-2)Man = biological target: Gal(b1-4)GlcNAc(b1-2)Man
In short: as §1

[15] = biological target: Gal(b1-4)GlcNAc(b1-2)Man(a1-3)Man(b1-4)GlcNAc(b1-4)GlcNAc
In short: as §1

[16] = biological target: Gal(b1-4)GlcNAc(b1-2)Man(a1-3)[Gal(b1-4)GlcNAc(b1-2)Man(a1-6)]Man(b1-4)GlcNAc(b1-4)GlcNAc
In short: as §1

[17] = biological target: Gal(b1-4)GlcNAc(b1-2)Man(a1-3)[Gal(b1-4)GlcNAc(b1-2)Man(a1-6)]Man(b1-4)GlcNAc(b1-4)[Fuc(a1-6)]GlcNAc
In short: as §1

[18] = biological target: Gal(b1-4)GlcNAc(b1-2)Man(a1-3)[Gal(b1-4)GlcNAc(b1-2)Man(a1-6)][Gal(b1-4)GlcNAc(b1-4)]Man(b1-4)GlcNAc(b1-4)[Fuc(a1-6)]GlcNAc
In short: as §1

[19] = biological target: Gal(b1-4)GlcNAc(b1-2)Man(a1-3)[Gal(b1-4)GlcNAc(b1-2)Man(a1-6)][GlcNAc(b1-4)]Man(b1-4)GlcNAc(b1-4)[Fuc(a1-6)]GlcNAc
In short: as §1

[20] = biological target: Gal(b1-4)GlcNAc(b1-2)Man(a1-3)[GlcNAc(b1-2)Man(a1-6)]Man(b1-4)GlcNAc(b1-4)GlcNAc
In short: as §1

[21] = biological target: Gal(b1-4)GlcNAc(b1-2)Man(a1-3)[GlcNAc(b1-4)][Gal(b1-4)GlcNAc(b1-2)Man(a1-6)]Man(b1-4)GlcNAc(b1-4)GlcNAc
In short: as §1

[22] = biological target: Gal(b1-4)GlcNAc(b1-2)Man(a1-3)[Man(a1-6)]Man(b1-4)GlcNAc(b1-4)GlcNAc
In short: as §1

[23] = biological target: Gal(b1-4)GlcNAc(b1-2)Man(a1-6)Man(b1-4)GlcNAc(b1-4)GlcNAc
In short: as §1

[24] = biological target: Gal(b1-4)GlcNAc(b1-2)Man(a1-6)[GlcNAc(b1-2)Man(a1-3)]Man(b1-4)GlcNAc(b1-4)GlcNAc
In short: as §1

[25] = biological target: Gal(b1-4)GlcNAc(b1-2)Man(a1-6)[Man(a1-3)]Man(b1-4)GlcNAc(b1-4)GlcNAc
In short: as §1

[26] = biological target: Gal(b1-4)GlcNAc(b1-2)[Gal(b1-4)GlcNAc(b1-4)]Man(a1-3)[Gal(b1-4)GlcNAc(b1-2)Man(a1-6)]Man(b1-4)GlcNAc(b1-4)GlcNAc
In short: as §1

[27] = biological target: Gal(b1-4)GlcNAc(b1-2)[Gal(b1-4)GlcNAc(b1-4)]Man(a1-3)[Gal(b1-4)GlcNAc(b1-2)[Gal(b1-4)GlcNAc(b1-6)]Man(a1-6)]Man(b1-4)GlcNAc(b1-4)GlcNAc
In short: as §1

[28] = biological target: Gal(b1-4)GlcNAc(b1-2)[Gal(b1-4)GlcNAc(b1-4)]Man(a1-3)[GlcNAc(b1-4)][Gal(b1-4)GlcNAc(b1-2)Man(a1-6)]Man(b1-4)GlcNAc(b1-4)GlcNAc
In short: as §1

[29] = biological target: Gal(b1-4)GlcNAc(b1-2)[Gal(b1-4)GlcNAc(b1-4)]Man(a1-3)[GlcNAc(b1-4)][Gal(b1-4)GlcNAc(b1-2)[Gal(b1-4)GlcNAc(b1-6)]Man(a1-6)]Man(b1-4)GlcNAc(b1-4)GlcNAc
In short: as §1

[30] = biological target: Gal(b1-4)GlcNAc(b1-2)[Gal(b1-4)GlcNAc(b1-6)]Man(a1-6)[Gal(b1-4)GlcNAc(b1-2)Man(a1-3)]Man(b1-4)GlcNAc(b1-4)GlcNAc
In short: as §1

[31] = biological target: Gal(b1-4)GlcNAc(b1-2)[Gal(b1-4)GlcNAc(b1-6)]Man(a1-6)[Gal(b1-4)GlcNAc(b1-2)Man(a1-3)]Man(b1-4)GlcNAc(b1-4)[Fuc(a1-6)]GlcNAc
In short: as §1

[32] = biological target: Gal(b1-4)GlcNAc(b1-2)[Gal(b1-4)GlcNAc(b1-6)]Man(a1-6)[GlcNAc(b1-4)][Gal(b1-4)GlcNAc(b1-2)Man(a1-3)]Man(b1-4)GlcNAc(b1-4)GlcNAc
In short: as §1

[33] = biological target: Gal(b1-4)GlcNAc(b1-2)[Gal(b1-4)GlcNAc(b1-6)]Man(a1-6)[GlcNAc(b1-4)][Gal(b1-4)GlcNAc(b1-2)[Gal(b1-4)GlcNAc(b1-4)]Man(a1-3)]Man(b1-4)GlcNAc(b1-4)[Fuc(a1-6)]GlcNAc
In short: as §1

[34] = biological target: Gal(b1-4)GlcNAc(b1-3)Gal(b1-3)GalNAc
In short: as §1

[35] = biological target: Gal(b1-4)GlcNAc(b1-3)Gal(b1-3)GlcNAc
In short: as §1

[36] = biological target: Gal(b1-4)GlcNAc(b1-3)Gal(b1-4)Glc
In short: as §1

[37] = biological target: Gal(b1-4)GlcNAc(b1-3)Gal(b1-4)GlcNAc
In short: as §1

[38] = biological target: Gal(b1-4)GlcNAc(b1-3)Gal(b1-4)GlcNAc(b1-2)Man(a1-3)[Gal(b1-4)GlcNAc(b1-3)Gal(b1-4)GlcNAc(b1-2)Man(a1-6)]Man(b1-4)GlcNAc(b1-4)GlcNAc
In short: as §1

[39] = biological target: Gal(b1-4)GlcNAc(b1-3)Gal(b1-4)GlcNAc(b1-2)Man(a1-3)[Gal(b1-4)GlcNAc(b1-3)Gal(b1-4)GlcNAc(b1-2)Man(a1-6)]Man(b1-4)GlcNAc(b1-4)[Fuc(a1-6)]GlcNAc
In short: as §1

B1: LecB LY19 (Pseudomonas aeruginosa) (protein)
chain: MATQGVFTLPANTQFGVTAFANSAGTQTVNVQVNNETVATFTGQSTNNGIIGSKVLNSGGGGKVQILVSVNGRSSDLVSAQVILANELNFALVGSEDSTDNDYNDAVVVINWPLG
- glycan array binding signal (z-score) [1]: -0.447
- glycan array binding signal (z-score) (Gal(b1-3)GlcNAc6S): -0.533
- glycan array binding signal (z-score) [2]: 2.35
- glycan array binding signal (z-score) [3]: -0.046
- glycan array binding signal (z-score) [4]: -0.151
- glycan array binding signal (z-score) [5]: 3.35
- glycan array binding signal (z-score) [6]: 4.05
- glycan array binding signal (z-score) [7]: 0.57
- glycan array binding signal (z-score) [8]: -0.544
- glycan array binding signal (z-score) [9]: -0.552
- glycan array binding signal (z-score) [10]: -0.537
- glycan array binding signal (z-score) [11]: -0.555
- glycan array binding signal (z-score) (Gal(b1-4)Gal): -0.531
- glycan array binding signal (z-score) [12]: -0.449
- glycan array binding signal (z-score) [13]: -0.46
- glycan array binding signal (z-score) (Gal(b1-4)Glc): -0.522
- glycan array binding signal (z-score) (Gal(b1-4)Glc6S): -0.482
- glycan array binding signal (z-score) (Gal(b1-4)GlcNAc): -0.551
- glycan array binding signal (z-score) [14]: -0.55
- glycan array binding signal (z-score) (Gal(b1-4)GlcNAc(b1-2)Man): -0.443
- glycan array binding signal (z-score) [15]: -0.552
- glycan array binding signal (z-score) [16]: -0.536
- glycan array binding signal (z-score) [17]: -0.001
- glycan array binding signal (z-score) [18]: 0.518
- glycan array binding signal (z-score) [19]: 0.308
- glycan array binding signal (z-score) [20]: -0.461
- glycan array binding signal (z-score) [21]: -0.553
- glycan array binding signal (z-score) [22]: -0.369
- glycan array binding signal (z-score) [23]: -0.536
- glycan array binding signal (z-score) [24]: -0.536
- glycan array binding signal (z-score) [25]: 0.834
- glycan array binding signal (z-score) [26]: -0.3
- glycan array binding signal (z-score) [27]: -0.268
- glycan array binding signal (z-score) [28]: -0.553
- glycan array binding signal (z-score) [29]: -0.555
- glycan array binding signal (z-score) [30]: -0.47
- glycan array binding signal (z-score) [31]: 0.846
- glycan array binding signal (z-score) [32]: -0.542
- glycan array binding signal (z-score) [33]: 0
- glycan array binding signal (z-score) [34]: -0.557
- glycan array binding signal (z-score) [35]: -0.443
- glycan array binding signal (z-score) [36]: -0.478
- glycan array binding signal (z-score) [37]: -0.549
- glycan array binding signal (z-score) [38]: -0.523
- glycan array binding signal (z-score) [39]: 0.535
